From a collection of fitness landscapes (doi:10.1016/j.celrep.2020.107928)
In all, about 81,000 sequences were measured (“one-hybrid fitness for binding parS DNA”: median about -0.17, highest 2% from about 0.51 on). The list shows a part of the results.

B1: Caulobacter ParB omega fusion; a variant is named by its letters at X, in order, B8GW30 (parent)
chain: MESVVVGEPGMSEGRRGLGRGLSALLGEVDAAPAQAPGEQLGGSREAPIEILQRNPDQPRRTFREEDLEDLSNSIREKGVLQPILVRPSPDTAGEYQIVAGERAWRAAQRAGLKTVPIMVRELDDLAVLEIGIIENVQRADLNVLEEALSYKVLMEKFERTQENIAQTIGKSXSHVANXMRLLXLPDEVQSYLVSGELTAXHARAIAAAADPVALAKQIIEGGLSVRETEALARKAPNLSAGKSKGGRPPRVKDTDTQALESDLSSVLGLDVSIDHRGSTGTLTITYATLEQLDDLCNRLTRGI

Variants of: B1
Experiment: one-hybrid fitness for binding parS DNA (scaled: cognate 1, non-cognate 0); higher = stronger binding
Settings: with parS DNA site
Outline: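 Pre- and post-selection plasmids were Illumina-sequenced, three replicate libraries were pooled, and any variant with under 10 reads was removed. The libraries were Caulobacter ParB with four specificity codons randomised, selected in E. coli USO through a HIS3 reporter whose site is 19 bp from the promoter. Cells grew 48 hours at 37°C on M9 without histidine, with 0.1 mM IPTG and 5 mM 3-AT. Fitness is the log change in variant-to-wild-type read ratio, rescaled against cognate and non-cognate.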

Variant	one-hybrid fitness for binding parS DNA
EWHR	≤ 0.2
FMNM	≤ 0.2
RPRQ	≤ 0.2
GEFG	≤ 0.2
QGSK	≤ 0.2
PQKP	≤ 0.2
EKTL	≤ 0.2
YPWR	≤ 0.2
SVEE	≤ 0.2
MIYW	≤ 0.2
ECHV	≤ 0.2
LPKF	≤ 0.2
IACN	≤ 0.2
WNLY	≤ 0.2
ADVN	≤ 0.2
QVQC	≤ 0.2
ATAG	≤ 0.2
PRQA	≤ 0.2
LRPL	≤ 0.2
VFVQ	≤ 0.2
GPQK	≤ 0.2
TEYY	≤ 0.2
FCIV	≤ 0.2
NCSD	≤ 0.2
MAIA	≤ 0.2

Variant	one-hybrid fitness for binding parS DNA
ERSS	≤ 0.2
ATKI	≤ 0.2
THFE	≤ 0.2
PPTG	≤ 0.2
YYER	≤ 0.2
WKER	≤ 0.2
RGKT	0.712
WQTA	≤ 0.2
GCMC	≤ 0.2
LGKY	≤ 0.2
FMVG	≤ 0.2
NYTW	≤ 0.2
CSDA	≤ 0.2
LKVQ	≤ 0.2
YSPL	≤ 0.2
LDRY	≤ 0.2
DCIG	≤ 0.2
MLCF	≤ 0.2
FNDL	≤ 0.2
LCWT	≤ 0.2
AMCR	≤ 0.2
TTQL	≤ 0.2
YMFG	≤ 0.2
RNQT	0.74
YQQG	≤ 0.2

Variant	one-hybrid fitness for binding parS DNA
VRRY	≤ 0.2
MEYT	≤ 0.2
DAKG	≤ 0.2
LRWC	≤ 0.2
IGPM	≤ 0.2
PPPD	≤ 0.2
SNGQ	≤ 0.2
RINY	0.513
TRPC	≤ 0.2
QNRL	≤ 0.2
KIRC	≤ 0.2
KRHW	≤ 0.2
SMKH	≤ 0.2
GTVD	≤ 0.2
HERS	≤ 0.2
AIIY	≤ 0.2
EMMY	≤ 0.2
VTFS	≤ 0.2
GACL	≤ 0.2
RTLD	≤ 0.2
IHWG	≤ 0.2
AALQ	≤ 0.2
KIAS	≤ 0.2
PFTC	≤ 0.2
QCCD	≤ 0.2

Variant	one-hybrid fitness for binding parS DNA
NTMA	≤ 0.2
AINV	≤ 0.2
GHAI	≤ 0.2
HVGR	≤ 0.2
RIGP	≤ 0.2
VSHL	≤ 0.2
TDCT	≤ 0.2
QENS	≤ 0.2
LVMG	≤ 0.2
YPLR	≤ 0.2
GVVG	≤ 0.2
RKYC	0.925
YTRI	≤ 0.2
EIVG	≤ 0.2
DRKI	≤ 0.2
TKAL	≤ 0.2
FFTW	≤ 0.2
SAKT	≤ 0.2
YMPP	≤ 0.2
KFLS	≤ 0.2
APKF	≤ 0.2
PELY	≤ 0.2
YICS	≤ 0.2
MYRR	≤ 0.2
KAGG	≤ 0.2

Variant	one-hybrid fitness for binding parS DNA
TTTV	≤ 0.2
SFTM	≤ 0.2
HHAG	≤ 0.2
FTNK	≤ 0.2
DYES	≤ 0.2
EVDN	≤ 0.2
TRVH	≤ 0.2
NGSK	≤ 0.2
NNWR	≤ 0.2
CTSF	≤ 0.2
DYET	≤ 0.2
WFGY	≤ 0.2
HWPR	≤ 0.2
YVLV	≤ 0.2
CHPG	≤ 0.2
DDSM	≤ 0.2
NLEL	≤ 0.2
YSHW	≤ 0.2
QTSK	≤ 0.2
PECW	≤ 0.2
KGWF	≤ 0.2
PRNS	≤ 0.2
KKEP	≤ 0.2
GWWE	≤ 0.2
TAQE	≤ 0.2

Variant	one-hybrid fitness for binding parS DNA
NTLI	≤ 0.2
RFRT	0.9
TRMQ	≤ 0.2
VSWR	≤ 0.2
CNER	≤ 0.2
NRST	≤ 0.2
VRAH	≤ 0.2
VVNG	≤ 0.2
NHKT	≤ 0.2
DAYD	≤ 0.2
SAIK	≤ 0.2
HLVS	≤ 0.2
YTPI	≤ 0.2
AAER	≤ 0.2
MIIR	≤ 0.2
MIYR	≤ 0.2
SARS	≤ 0.2
SFTE	≤ 0.2
KQSR	≤ 0.2
CLGL	≤ 0.2
RRTW	≤ 0.2
LKHY	≤ 0.2
VEEG	≤ 0.2
KRTV	≤ 0.2
QYIR	≤ 0.2

Variant	one-hybrid fitness for binding parS DNA
AGLY	≤ 0.2
MNVT	≤ 0.2
LWRK	≤ 0.2
HATP	≤ 0.2
ERWC	≤ 0.2
WMLR	≤ 0.2
YKWS	≤ 0.2
LIRG	≤ 0.2
TGDN	≤ 0.2
GYEV	≤ 0.2
QQMR	≤ 0.2
EGIR	≤ 0.2
YSPA	≤ 0.2
RSYK	≤ 0.2
FAMC	≤ 0.2
VKLQ	≤ 0.2
PMVL	≤ 0.2
QHLE	≤ 0.2
QIRH	≤ 0.2
RAHV	≤ 0.2
ICRR	≤ 0.2
RNRH	≤ 0.2
RIPY	0.232
DYGS	≤ 0.2
IRIC	≤ 0.2

Variant	one-hybrid fitness for binding parS DNA
RATL	≤ 0.2
SVMW	≤ 0.2
LLAE	≤ 0.2
WPHN	≤ 0.2
DYGR	≤ 0.2
PEMG	≤ 0.2
CMKL	≤ 0.2
RVVG	0.942
TEAA	≤ 0.2
CATF	≤ 0.2
PAWE	≤ 0.2
RLMR	≤ 0.2
DERS	≤ 0.2
QMRY	≤ 0.2
RKDN	0.329
GKLS	≤ 0.2
ICQS	≤ 0.2
HRQN	≤ 0.2
PPMT	≤ 0.2
VPDE	≤ 0.2
